The results in this text go back to publication PMC2211523, “Atypical AAA+ Subunit Packing Creates an Expanded Cavity for Disaggregation by the Protein-Remodeling Factor Hsp104” (Cell, 2007).

Series [1] concerns the molecule itself. The series is described as follows: cryo-EM structure; 0.3 mg/ml protein in 20 mM HEPES (pH 7.5), 20 mM NaCl, 10 mM MgCl2, 1 mM DTT, 2 mM ATPγS; single particle reconstruction with 6-fold symmetry.
Series [2] deals with the molecule itself. As to the kind of experiment: cross-linking; glutaraldehyde (0.1%, 10 min), 0.2 μM monomer, with 1 mM ATP; 40 mM HEPES-KOH (pH 7.4), 150 mM KCl, 20 mM MgCl2, 1 mM DTT.
Series [3] concerns the molecule itself. The series is described as follows: cross-linking; glutaraldehyde crosslinking in the absence of nucleotide, 0.2 μM monomer; 40 mM HEPES-KOH (pH 7.4), 150 mM KCl, 20 mM MgCl2, 1 mM DTT.

B1: Hsp104 Δ[…] (ΔN) (domain or fragment)
chain: not shown
notes: Hsp104 from S. cerevisiae lacking […] (N-terminal domain deleted); Forms a hexamer with ATPγS (cryo-EM); also called Hsp104 ΔN; N-terminal deletion mutant; source: E. coli BL21-Codon Plus-RIL, purified as described (Hattendorf and Lindquist, 2002a)
As usually defined, the stoichiometry N is the number of molecules, sites or subunits per partner or assembly. On to B1, for which the “stoichiometry N” value in series [1] came out at 6.

B2: Hsp104^R334M (natural protein)
chain: not shown
notes: Hsp104 from S. cerevisiae with R334M (NBD1); Made by QuikChange mutagenesis; construct as for wild-type Hsp104 (Shorter and Lindquist, 2004); also called predicted NBD1 arginine finger mutant; source: purified as described (Shorter and Lindquist, 2004)
For the protein B2, in series [2], the “stoichiometry N” value amounted to 6.

B3: Hsp104^R495M (natural protein)
chain: not shown
notes: Hsp104 from S. cerevisiae with R495M (helix L2 of the coiled-coil domain); Made by QuikChange mutagenesis; construct as for wild-type Hsp104 (Shorter and Lindquist, 2004); source: purified as described (Shorter and Lindquist, 2004)
Consider B3, for which the binding result in series [2] was “binds”.

B4: Hsp104^N728A (full-length Hsp104, sensor-1 mutation in NBD2) (natural protein)
chain: not shown
notes: Hsp104 from S. cerevisiae, full length, with the sensor-1 mutation N728A in NBD2; Forms a hexamer with ATPγS (cryo-EM); source: E. coli BL21-Codon Plus-RIL, purified as described (Hattendorf and Lindquist, 2002a)
In the case of B4, the “stoichiometry N” value in series [1] is 6.

B5: Hsp104^R765M (natural protein)
chain: not shown
notes: Hsp104 from S. cerevisiae with R765M (NBD2); Made by QuikChange mutagenesis; construct as for wild-type Hsp104 (Shorter and Lindquist, 2004); also called predicted NBD2 arginine finger mutant; source: purified as described (Shorter and Lindquist, 2004)
On to B5, for which the binding result in series [3] is “binds”.

B6: Hsp104^R444M (natural protein)
chain: not shown
notes: Hsp104 from S. cerevisiae with R444M (helix L2 of the coiled-coil domain); Made by QuikChange mutagenesis; construct as for wild-type Hsp104 (Shorter and Lindquist, 2004); source: purified as described (Shorter and Lindquist, 2004)
Consider B6, for which the binding result in series [2] is “binds”.

B7: Hsp104^R419M (natural protein)
chain: not shown
notes: Hsp104 from S. cerevisiae with R419M (helix L1 of the coiled-coil domain); Made by QuikChange mutagenesis; construct as for wild-type Hsp104 (Shorter and Lindquist, 2004); source: purified as described (Shorter and Lindquist, 2004)
In the case of B7, in series [2], the binding result was “binds”.
